Measured values published in the supplement of paper PMC8728848.
Some of the results follow.

Assays:
Test in all cases: glycan array binding signal (z-score within array); higher = stronger binding
Conditions in all cases: glycan notation: IUPAC condensed, linker removed
Fuc(a1-2)Gal = biological target: Fuc(a1-2)Gal
Outline: (§1)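 Columns mapping to the same glycan were averaged after glycan names were converted to IUPAC-condensed notation. The data come from 3228 arrays in the Consortium for Functional Glycomics database, limited to those with an available protein sequence. Binding is reported as a within-array Z-score averaged across arrays of one protein sequence and across linkers.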

Fuc(a1-2)Gal(b1-3)GalNAc = biological target: Fuc(a1-2)Gal(b1-3)GalNAc
Outline: as §1

[1] = biological target: Fuc(a1-2)Gal(b1-3)GalNAc(a1-3)[Fuc(a1-2)]Gal(b1-4)Glc
Outline: as §1

[2] = biological target: Fuc(a1-2)Gal(b1-3)GalNAc(a1-3)[Fuc(a1-2)]Gal(b1-4)GlcNAc
Outline: as §1

[3] = biological target: Fuc(a1-2)Gal(b1-3)GalNAc(b1-3)Gal
Outline: as §1

[4] = biological target: Fuc(a1-2)Gal(b1-3)GalNAc(b1-3)Gal(a1-4)Gal(b1-4)Glc
Outline: as §1

[5] = biological target: Fuc(a1-2)Gal(b1-3)GalNAc(b1-4)[Neu5Ac(a2-3)]Gal(b1-4)Glc
Outline: as §1

Fuc(a1-2)Gal(b1-3)GlcNAc = biological target: Fuc(a1-2)Gal(b1-3)GlcNAc
Outline: as §1

[6] = biological target: Fuc(a1-2)Gal(b1-3)GlcNAc(b1-2)Man(a1-3)[Fuc(a1-2)Gal(b1-3)GlcNAc(b1-2)Man(a1-6)]Man(b1-4)GlcNAc(b1-4)GlcNAc
Outline: as §1

[7] = biological target: Fuc(a1-2)Gal(b1-3)GlcNAc(b1-2)Man(a1-3)[Fuc(a1-2)Gal(b1-3)GlcNAc(b1-2)Man(a1-6)]Man(b1-4)GlcNAc(b1-4)[Fuc(a1-6)]GlcNAc
Outline: as §1

[8] = biological target: Fuc(a1-2)Gal(b1-3)GlcNAc(b1-3)Gal(b1-4)Glc
Outline: as §1

[9] = biological target: Fuc(a1-2)Gal(b1-3)GlcNAc(b1-3)GalNAc
Outline: as §1

[10] = biological target: Fuc(a1-2)Gal(b1-3)GlcNAc(b1-3)[Fuc(a1-2)Gal(b1-3)GlcNAc(b1-6)]GalNAc
Outline: as §1

[11] = biological target: Fuc(a1-2)Gal(b1-3)GlcNAc(b1-3)[Gal(b1-4)GlcNAc(b1-6)]Gal(b1-4)Glc
Outline: as §1

[12] = biological target: Fuc(a1-2)Gal(b1-3)GlcNAc(b1-3)[Neu5Ac(a2-6)Gal(b1-4)GlcNAc(b1-6)]Gal(b1-4)Glc
Outline: as §1

[13] = biological target: Fuc(a1-2)Gal(b1-3)GlcNAc6S
Outline: as §1

[14] = biological target: Fuc(a1-2)Gal(b1-3)[Fuc(a1-4)]GlcNAc
Outline: as §1

[15] = biological target: Fuc(a1-2)Gal(b1-3)[Fuc(a1-4)]GlcNAc(b1-2)Man(a1-3)[Fuc(a1-2)Gal(b1-3)[Fuc(a1-4)]GlcNAc(b1-2)Man(a1-3)]Man(b1-4)GlcNAc(b1-4)GlcNAc
Outline: as §1

[16] = biological target: Fuc(a1-2)Gal(b1-3)[Fuc(a1-4)]GlcNAc(b1-2)Man(a1-3)[Fuc(a1-2)Gal(b1-3)[Fuc(a1-4)]GlcNAc(b1-2)Man(a1-6)]Man(b1-4)GlcNAc(b1-4)[Fuc(a1-6)]GlcNAc(b1-4)[Fuc(a1-6)]GlcNAc
Outline: as §1

[17] = biological target: Fuc(a1-2)Gal(b1-3)[Fuc(a1-4)]GlcNAc(b1-3)[Fuc(a1-3)[Gal(b1-4)]GlcNAc(b1-6)]Gal(b1-4)Glc
Outline: as §1

[18] = biological target: Fuc(a1-2)Gal(b1-3)[Fuc(a1-4)]GlcNAc(b1-3)[Gal(b1-4)GlcNAc(b1-6)]Gal(b1-4)Glc
Outline: as §1

[19] = biological target: Fuc(a1-2)Gal(b1-4)Fuc(a1-3)]GlcNAc(b1-2)Man(a1-3)[Fuc(a1-2)Gal(b1-4)[Fuc(a1-3)]GlcNAc(b1-2)Man(a1-6)]Man(b1-4)GlcNAc(b1-4)GlcNAc
Outline: as §1

Fuc(a1-2)Gal(b1-4)Glc = biological target: Fuc(a1-2)Gal(b1-4)Glc
Outline: as §1

Fuc(a1-2)Gal(b1-4)Glc6S = biological target: Fuc(a1-2)Gal(b1-4)Glc6S
Outline: as §1

Fuc(a1-2)Gal(b1-4)GlcNAc = biological target: Fuc(a1-2)Gal(b1-4)GlcNAc
Outline: as §1

[20] = biological target: Fuc(a1-2)Gal(b1-4)GlcNAc(b1-2)Man
Outline: as §1

[21] = biological target: Fuc(a1-2)Gal(b1-4)GlcNAc(b1-2)Man(a1-3)[Fuc(a1-2)Gal(b1-4)GlcNAc(b1-2)Man(a1-6)]Man(b1-4)GlcNAc(b1-4)GlcNAc
Outline: as §1

[22] = biological target: Fuc(a1-2)Gal(b1-4)GlcNAc(b1-2)Man(a1-3)[Fuc(a1-2)Gal(b1-4)GlcNAc(b1-2)Man(a1-6)]Man(b1-4)GlcNAc(b1-4)[Fuc(a1-6)]GlcNAc
Outline: as §1

[23] = biological target: Fuc(a1-2)Gal(b1-4)GlcNAc(b1-2)[Fuc(a1-2)Gal(b1-4)GlcNAc(b1-4)]Man(a1-3)[Fuc(a1-2)Gal(b1-4)GlcNAc(b1-2)Man(a1-6)]Man(b1-4)GlcNAc(b1-4)GlcNAc
Outline: as §1

[24] = biological target: Fuc(a1-2)Gal(b1-4)GlcNAc(b1-3)Gal(b1-4)GlcNAc
Outline: as §1

[25] = biological target: Fuc(a1-2)Gal(b1-4)GlcNAc(b1-3)Gal(b1-4)GlcNAc(b1-2)Man(a1-3)[Fuc(a1-2)Gal(b1-4)GlcNAc(b1-3)Gal(b1-4)GlcNAc(b1-2)Man(a1-6)]Man(b1-4)GlcNAc(b1-4)GlcNAc
Outline: as §1

[26] = biological target: Fuc(a1-2)Gal(b1-4)GlcNAc(b1-3)Gal(b1-4)GlcNAc(b1-3)Gal(b1-4)GlcNAc
Outline: as §1

[27] = biological target: Fuc(a1-2)Gal(b1-4)GlcNAc(b1-3)GalNAc
Outline: as §1

[28] = biological target: Fuc(a1-2)Gal(b1-4)GlcNAc(b1-3)[Fuc(a1-2)Gal(b1-4)GlcNAc(b1-6)]GalNAc
Outline: as §1

[29] = biological target: Fuc(a1-2)Gal(b1-4)GlcNAc(b1-3)[Fuc(a1-3)[Gal(b1-4)]GlcNAc(b1-6)]Gal(b1-4)Glc
Outline: as §1

[30] = biological target: Fuc(a1-2)Gal(b1-4)GlcNAc(b1-6)GalNAc
Outline: as §1

[31] = biological target: Fuc(a1-2)Gal(b1-4)GlcNAc6S
Outline: as §1

[32] = biological target: Fuc(a1-2)Gal(b1-4)[Fuc(a1-3)]GlcNAc
Outline: as §1

[33] = biological target: Fuc(a1-2)Gal(b1-4)[Fuc(a1-3)]GlcNAc(b1-2)Man(a1-3)[Fuc(a1-2)Gal(b1-4)[Fuc(a1-3)]GlcNAc(b1-2)Man(a1-6)]Man(b1-4)GlcNAc(b1-4)[Fuc(a1-6)]GlcNAc
Outline: as §1

[34] = biological target: Fuc(a1-2)Gal(b1-4)[Fuc(a1-3)]GlcNAc(b1-2)[Fuc(a1-2)Gal(b1-4)[Fuc(a1-3)]GlcNAc(b1-4)]Man(a1-3)[Fuc(a1-2)Gal(b1-4)[Fuc(a1-3)]GlcNAc(b1-2)Man(a1-6)]Man(b1-4)GlcNAc(b1-4)GlcNAc
Outline: as §1

[35] = biological target: Fuc(a1-2)Gal(b1-4)[Fuc(a1-3)]GlcNAc(b1-3)Gal(b1-4)[Fuc(a1-3)]GlcNAc
Outline: as §1

[36] = biological target: Fuc(a1-2)Gal(b1-4)[Fuc(a1-3)]GlcNAc(b1-3)Gal(b1-4)[Fuc(a1-3)]GlcNAc(b1-3)Gal(b1-4)[Fuc(a1-3)]GlcNAc
Outline: as §1

[37] = biological target: Fuc(a1-2)Gal(b1-4)[Fuc(a1-3)]GlcNAc(b1-3)GalNAc
Outline: as §1

[38] = biological target: Fuc(a1-2)Gal(b1-4)[Fuc(a1-3)]GlcNAc(b1-3)[Neu5Ac(a2-6)Gal(b1-4)GlcNAc(b1-6)]Gal(b1-4)Glc
Outline: as §1

[39] = biological target: Fuc(a1-2)Gal3S(b1-4)GlcNAc
Outline: as §1

B1: AFCNVH (Aspergillus fumigatus) (protein)
chain: MSLRGFHTTCDTIVLKDKHILSSRCKRPDGTYSFSEIDLNDCLGNNNGKFVWGGESFVDSASQVNLALEGGEGRPMLHAQLNDWHGSVQSASVNLGECIQNEAGGLEYMHC
Q: For B1, which “glycan array binding signal (z-score)” value (Fuc(a1-2)Gal) is on record?
A: The value was -0.259.

Q: What about the “glycan array binding signal (z-score)” value (Fuc(a1-2)Gal(b1-3)GalNAc) of the same binder?
A: The value was -0.434.

Q: And the “glycan array binding signal (z-score)” value [1]?
A: Its value is -0.205.

Q: What about the “glycan array binding signal (z-score)” value [2] of the same binder?
A: Its value is -0.111.

Q: And the “glycan array binding signal (z-score)” value [3]?
A: The value was -0.266.

Q: And the “glycan array binding signal (z-score)” value [4]?
A: The value was -0.399.

Q: And the “glycan array binding signal (z-score)” value [5]?
A: The value was -0.453.

Q: What about the “glycan array binding signal (z-score)” value (Fuc(a1-2)Gal(b1-3)GlcNAc) of the same binder?
A: The value was -0.264.

Q: And the “glycan array binding signal (z-score)” value [6]?
A: The value was -0.051.

Q: What about the “glycan array binding signal (z-score)” value [7] of the same binder?
A: The value was -0.243.

Q: What about the “glycan array binding signal (z-score)” value [8] of the same binder?
A: Its value is -0.433.

Q: And the “glycan array binding signal (z-score)” value [9]?
A: Its value is -0.456.

Q: What about the “glycan array binding signal (z-score)” value [10] of the same binder?
A: The value was -0.415.

Q: And the “glycan array binding signal (z-score)” value [11]?
A: The value was -0.283.

Q: And the “glycan array binding signal (z-score)” value [12]?
A: The value was -0.37.

Q: And the “glycan array binding signal (z-score)” value [13]?
A: The value was -0.374.

Q: What about the “glycan array binding signal (z-score)” value [14] of the same binder?
A: The value was -0.463.

Q: And the “glycan array binding signal (z-score)” value [15]?
A: Its value is -0.108.

Q: What about the “glycan array binding signal (z-score)” value [16] of the same binder?
A: The value was -0.401.

Q: What about the “glycan array binding signal (z-score)” value [17] of the same binder?
A: Its value is -0.249.

Q: And the “glycan array binding signal (z-score)” value [18]?
A: Its value is -0.183.

Q: What about the “glycan array binding signal (z-score)” value [19] of the same binder?
A: Its value is -0.233.

Q: And the “glycan array binding signal (z-score)” value (Fuc(a1-2)Gal(b1-4)Glc)?
A: The value was -0.408.

Q: And the “glycan array binding signal (z-score)” value (Fuc(a1-2)Gal(b1-4)Glc6S)?
A: Its value is -0.391.

Q: What about the “glycan array binding signal (z-score)” value (Fuc(a1-2)Gal(b1-4)GlcNAc) of the same binder?
A: The value was -0.239.

Q: And the “glycan array binding signal (z-score)” value [20]?
A: The value was -0.047.

Q: And the “glycan array binding signal (z-score)” value [21]?
A: Its value is -0.119.

Q: What about the “glycan array binding signal (z-score)” value [22] of the same binder?
A: The value was -0.175.

Q: What about the “glycan array binding signal (z-score)” value [23] of the same binder?
A: The value was -0.277.

Q: And the “glycan array binding signal (z-score)” value [24]?
A: The value was -0.175.

Q: What about the “glycan array binding signal (z-score)” value [25] of the same binder?
A: Its value is -0.126.

Q: And the “glycan array binding signal (z-score)” value [26]?
A: Its value is -0.383.

Q: What about the “glycan array binding signal (z-score)” value [27] of the same binder?
A: Its value is -0.105.

Q: What about the “glycan array binding signal (z-score)” value [28] of the same binder?
A: The value was -0.442.

Q: What about the “glycan array binding signal (z-score)” value [29] of the same binder?
A: Its value is -0.396.

Q: And the “glycan array binding signal (z-score)” value [30]?
A: The value was -0.421.

Q: What about the “glycan array binding signal (z-score)” value [31] of the same binder?
A: The value was -0.421.

Q: And the “glycan array binding signal (z-score)” value [32]?
A: Its value is -0.405.

Q: What about the “glycan array binding signal (z-score)” value [33] of the same binder?
A: The value was -0.288.

Q: And the “glycan array binding signal (z-score)” value [34]?
A: The value was -0.337.

Q: And the “glycan array binding signal (z-score)” value [35]?
A: Its value is -0.23.

Q: What about the “glycan array binding signal (z-score)” value [36] of the same binder?
A: The value was 0.141.

Q: And the “glycan array binding signal (z-score)” value [37]?
A: Its value is -0.393.

Q: What about the “glycan array binding signal (z-score)” value [38] of the same binder?
A: The value was -0.454.

Q: And the “glycan array binding signal (z-score)” value [39]?
A: The value was -0.445.
